The values that follow come from PubChem BioAssay AID1645882 (National Center for Advancing Translational Sciences (NCATS), 2021).

Each structure is given as a SMILES string. In all, about 16,000 compounds went through this assay and about 120 (0.75%) were called active. Not shown: some 4% with an inconclusive outcome. The call rests on the fitted dose curve; in most records, active means well fitted inhibition curve with a large enough effect; inconclusive means small, poorly fitted or top-dose-only effect; inactive means no such curve, though single readings can be large or run the other way. The list shows a part of the results.

Sequence of UniProt O95398 (O95398 whole entry, looked up): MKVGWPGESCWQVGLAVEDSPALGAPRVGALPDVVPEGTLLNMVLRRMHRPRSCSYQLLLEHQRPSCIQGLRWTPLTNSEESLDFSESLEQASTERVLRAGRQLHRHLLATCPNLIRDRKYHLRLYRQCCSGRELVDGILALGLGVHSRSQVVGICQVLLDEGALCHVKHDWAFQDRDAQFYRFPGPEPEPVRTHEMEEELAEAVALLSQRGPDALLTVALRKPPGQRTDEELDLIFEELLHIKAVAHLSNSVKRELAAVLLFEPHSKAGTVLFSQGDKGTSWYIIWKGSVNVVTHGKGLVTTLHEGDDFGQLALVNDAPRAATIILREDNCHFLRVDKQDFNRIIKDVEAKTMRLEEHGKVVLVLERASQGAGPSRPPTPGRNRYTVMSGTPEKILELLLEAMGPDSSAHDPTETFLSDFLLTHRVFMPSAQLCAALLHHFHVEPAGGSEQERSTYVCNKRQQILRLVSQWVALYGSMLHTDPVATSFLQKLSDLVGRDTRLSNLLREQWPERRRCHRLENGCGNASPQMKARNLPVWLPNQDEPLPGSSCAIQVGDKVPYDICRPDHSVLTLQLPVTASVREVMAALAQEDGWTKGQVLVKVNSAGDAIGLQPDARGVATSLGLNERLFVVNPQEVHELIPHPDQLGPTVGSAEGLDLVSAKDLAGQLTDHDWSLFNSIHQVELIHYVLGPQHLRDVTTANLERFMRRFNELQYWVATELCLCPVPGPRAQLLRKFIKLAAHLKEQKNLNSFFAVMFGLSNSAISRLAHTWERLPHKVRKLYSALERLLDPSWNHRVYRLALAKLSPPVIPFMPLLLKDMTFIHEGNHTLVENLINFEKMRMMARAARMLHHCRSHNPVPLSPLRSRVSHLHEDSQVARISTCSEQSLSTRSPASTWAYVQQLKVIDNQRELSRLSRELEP

This assay deals with Rap guanine nucleotide exchange factor 3 (Homo sapiens) (UniProt O95398). Put plainly: Validation qHTS for antagonist of cAMP-regulated guanine nucleotide exchange factor 3 (EPAC1).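 Further: plate controls were DMSO for no effect and ATA control for full effect; nearly all actives have a fitted effect of over 75% in size.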 Conditions: EPAC1 Rap1B-BODIPY-GDP exchange, fluorescence; series mostly up to 150 µM; activity change, negative = inhibition: at the top concentration. The procedure, abridged:
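EPAC1 (100 nM) mixed with 250 nM RAP1B-BODIPY-GDP and 50 uM GDP; compounds in concentration series, 5 min at room temperature. Fluorescence (ex 480/em 540 nm) read every 5 min for 30 min; normalized to ATA control and DMSO.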
(In general: In qHTS, concentration-response curves come from the screen itself.)
Consider `N#Cc1cccc(NC(=O)N2CC[C@@]3(CCCN(S(=O)(=O)c4ccccc4)C3)C2)c1`, for which the “activity change, negative = inhibition” value is inactive: -0.501%. For the compound `CN1CCN(c2ncnc3ccc(-c4ccccc4Cl)cc23)CC1`, the “activity change, negative = inhibition” value is inactive: 12.4%. Take `Clc1ccccc1-c1nc(NCc2cccnc2)c2ccccc2n1`: the “activity change, negative = inhibition” value was inactive: 8.59%. Turning to `FC(F)(F)c1ccccc1-c1nc(N2CCNCC2)c2ccccc2n1`, the “activity change, negative = inhibition” value was inactive: 8.42%. Take `N=C(N)c1ccc2cc(OC(=O)c3ccc(N=C(N)N)cc3)ccc2c1`: the activity change, negative = inhibition entry is “inactive”. Regarding `O=C(O)CC/C=C\CC[C@H]1[C@@H](N2CCCCC2)[C@@H](O)C[C@@H]1OCc1ccc(-c2ccccc2)cc1`, the “activity change, negative = inhibition” value is inactive: 7.92%. As to `CCCC(NC(C)C(=O)N1C(C(=O)O)CC2CCCCC21)C(=O)OCC` (stereo unspecified), the “activity change, negative = inhibition” value is inactive: 12.8%. Regarding `O=C(NCc1cccnc1)c1cnn(-c2ncc3c(n2)-c2ccccc2CCC3)c1C1CC1`, the “activity change, negative = inhibition” value is inactive: 17.9%. The same measure for `CCNc1ncc2nc(-c3cc(F)cc(F)c3)c(=O)n(CCc3ccccc3)c2n1`: inactive: 7.98%; for `CCCCC/C=C\C/C=C\CCCCCCCC(=O)NC(C)c1ccccc1` (stereo unspecified): inactive: 4.35%. Regarding `COc1ccccc1CNc1cc(-c2cccnc2)ncn1`, the “activity change, negative = inhibition” value is inactive: 10%. The same measure for `COc1ccc(CN2CCC(=O)N([C@H](CO)c3ccccc3)CC2)cc1`: inactive: -2.23%; for `Cc1nc(C)n(CC(=O)N2CCOc3ccc(CN4CCN(C)C[C@@H]4c4ccccc4)cc3C2)n1`: inactive: -4.74%; for `CC(C)NCC(O)c1ccc2ccccc2c1` (stereo unspecified): “inactive”. The same measure for `COC(=O)c1c(OCc2ccccn2)cc(=O)n2c1CCN(Cc1cccc(C(F)(F)F)c1)CC2`: inactive: 19.2%; for `Clc1cccc(C(c2ccc3nc[nH]c3c2)n2ccnc2)c1` (stereo unspecified): inactive: 16.8%; for `Cc1nc2[nH]c(=O)[nH]c(=O)c2[nH]1`: inactive: 23%.

For the compound `CC1=C[C@H](O)CC(C)(C)[C@H]1/C=C/C(C)=C/C=C/C(C)=C/C=C/C=C(C)/C=C/C=C(C)/C=C/C1=C(C)C[C@@H](O)CC1(C)C`, the “activity change, negative = inhibition” value is inactive: 7.87%. Regarding `CC(=O)O[C@]1(C(C)=O)CC[C@H]2[C@@H]3C[C@H](C)C4=CC(=O)CC[C@]4(C)[C@H]3CC[C@@]21C`, the “activity change, negative = inhibition” value was inactive: 12.2%.

On to `N[C@@H](Cc1ccccc1)C(=O)O`, for which the “activity change, negative = inhibition” value was inactive: 11.1%.

As to `CC1CN(CC(=O)NCC2(N3CCOCC3)CCCC2)Cc2cc(Cl)ccc2O1` (stereo unspecified), the “activity change, negative = inhibition” value was inactive: -15.9%. On to `CC(=O)OCC(=O)[C@]1(O)C(OC(C)=O)CC2C3CCC4=CC(=O)C=C[C@@]4(C)[C@]3(F)C(O)C[C@]21C` (stereo partly specified), for which the “activity change, negative = inhibition” value is inactive: -0.671%. As for `C[C@]12CCC(=O)C=C1CC[C@@H]1C2[C@@H](O)C[C@@]2(C)[C@H]1CC[C@]2(O)C(=O)CO` (stereo partly specified), the “activity change, negative = inhibition” value was inactive: 12.5%. For the compound `COc1cccc(Cn2c(=O)c(-c3cc(F)cc(F)c3)nc3cnc(N(C)C)nc32)c1`, the “activity change, negative = inhibition” value is inactive: 16.7%. Consider `CC(=O)Nc1ccccc1-c1nc(CNC(=O)c2cccc(-n3cccn3)c2)c(C)o1`, for which the “activity change, negative = inhibition” value was inactive: -0.113%. Take `CCCCNC(=O)[C@@H]1Cc2ccccc2N1C(=O)[C@H](N)CC`: the “activity change, negative = inhibition” value was inactive: -2.63%. Turning to `O=C(Cc1ccc[nH]c1=O)c1ccc(F)cc1`, the “activity change, negative = inhibition” value is inactive: 18.8%.

As for `COCCn1c(=O)c(-c2cc(F)cc(F)c2)nc2cnc(N3CCN(C)CC3)nc21`, the “activity change, negative = inhibition” value is inactive: -0.675%.

As for `COc1ccc(-n2c(=O)c(-c3cccs3)nc3cnc(Oc4ccccc4)nc32)cc1`, the “activity change, negative = inhibition” value was inactive: -17.9%.

Take `N[C@@H](CCCP(=O)(O)O)C(=O)O`: the “activity change, negative = inhibition” value was inactive: 1.53%. For `C=Cc1ccccc1`, the “activity change, negative = inhibition” value is inactive: 14.5%. With `O=P(O)(O)OC[C@H](O)CO`, the “activity change, negative = inhibition” value is inactive: 8.25%. On to `CC(C)[C@H](O)CC[C@@H](C)C1CC[C@H]2C3CC=C4C[C@@H](O)CC[C@]4(C)C3CC[C@]12C` (stereo partly specified), for which the activity change, negative = inhibition result is “inactive”. The result for `COc1ccccc1-c1cncnc1NCc1cccs1` reads inactive: 6.51%; that for `CN(C)c1nc(N(C)C)nc(N(C)C)n1`, “inactive”; that for `Cc1ccc(O)cc1`, “inactive”. Regarding `Cc1ccc(-c2ccnc(-n3ncc(C(=O)N(C)CC4CCCN(C)C4)c3C)n2)o1` (stereo unspecified), the “activity change, negative = inhibition” value was inactive: 7.34%. For `c1cnc2[nH]ccc2c1`, the “activity change, negative = inhibition” value was inactive: 21.9%. For `COc1ccc2c(c1)[C@@]1(C)CCC[C@](C)(CO)C1CC2` (stereo partly specified), the “activity change, negative = inhibition” value was inactive: -3.59%.

On to `Cc1nc2cnc(N3CCNCC3)nc2n(-c2ccccc2)c1=O`, for which the “activity change, negative = inhibition” value was inactive: 26.2%. In the case of `CCOC(=O)[C@@H](C)N(Cc1ccc(OC)cc1)S(=O)(=O)N(Cc1ccccc1)[C@H](C(=O)OC)C(C)C`, the “activity change, negative = inhibition” value was inactive: -14.6%. On to `CC(=O)Oc1ccc2c(c1)CCC1C2CC[C@]2(C)C(=O)CCC12` (stereo partly specified), for which the “activity change, negative = inhibition” value is inactive: -14.4%.

On to `Nc1nc2n[nH]nc2c(=O)[nH]1`, for which the activity change, negative = inhibition entry was “inactive”. The result for `O=c1c(-c2cccc(F)c2)nc2cncnc2n1Cc1ccccc1Cl` reads inactive: 2.1%; that for `COc1ccc(CNc2nc(-c3ccoc3)nc3ccccc23)c(OC)c1`, inactive: -29.1%.

For the compound `CS(=O)(=O)Nc1cccc(-c2ccc3ncnc(NCc4cccs4)c3c2)c1`, the “activity change, negative = inhibition” value is inactive: 6.86%. For the compound `Cc1ncc2c(c1CNS(=O)(=O)N(C)C)CCN(C(=O)/C=C/c1ccccc1)C2`, the “activity change, negative = inhibition” value is inactive: 8.95%. Regarding `O=C(NCC1(N2CCOCC2)CCCC1)c1cnn(-c2ncc3c(n2)-c2ccccc2CC3)c1C1CC1`, the “activity change, negative = inhibition” value was inactive: 5.27%. On to `C[C@@H]1CN(Cc2ccc3c(c2)CN(Cc2cccc4c2OCO4)CCO3)C[C@H](C)O1`, for which the “activity change, negative = inhibition” value is inactive: 16.7%. As to `c1ccc2cnccc2c1`, the “activity change, negative = inhibition” value is inactive: 17%. The result for `CCC1CN(CCNC(=O)c2ccsc2)Cc2cc(OC)ccc2O1` (stereo unspecified) reads inactive: 14.3%. Turning to `Fc1cccc(/C=N\N=C/c2cccc(F)c2)c1`, the “activity change, negative = inhibition” value was inactive: 5.5%. Turning to `Cc1ccc(CNc2nc(CN3CCNC(=O)C3)nc3ccccc23)o1`, the “activity change, negative = inhibition” value was inactive: 17.3%.

For the compound `CCOC(=O)Oc1c(OC)cc(C(=O)O[C@@H]2C[C@@H]3CN4CCc5c([nH]c6cc(OC)ccc56)[C@H]4C[C@@H]3[C@H](C(=O)OC)[C@H]2OC)cc1OC`, the activity change, negative = inhibition result is “inactive”. Consider `Cc1noc(C)c1-c1cc(NCc2ccccc2)ncn1`, for which the “activity change, negative = inhibition” value is inactive: 11%. Regarding `O=C(c1csnn1)N1CCC2(CCCN(c3ccncc3)C2)CC1`, the “activity change, negative = inhibition” value was inactive: 0.39%. With `CC1=CC(=O)C2=C(C)CCC3C(C)C(=O)OC3C12` (stereo unspecified), the “activity change, negative = inhibition” value was inactive: 18.1%. The result for `CC(C)(C)[C@@H]1CCC(=O)N(CC[C@H](N=[N+]=[N-])c2ccccc2)CC1` reads inactive: -27.2%. Take `COc1ccc(-c2nc3cc(C)ccc3cc2CN(C(=O)c2ccc(C)s2)C2CC2)cc1OC`: the “activity change, negative = inhibition” value is inactive: 4.33%. `O=C(/C=C/C(=O)Oc1ccccc1C(=O)O)Oc1ccccc1C(=O)O`: the “activity change, negative = inhibition” value is inactive: -1.89%. On to `O=S1(=O)CCOC[C@H](c2ccccc2)N1Cc1cccc(F)c1`, for which the “activity change, negative = inhibition” value was inactive: 3.34%. The result for `CCOC(=O)N1CCN(Cc2ccc3c(c2)CN(C(=O)c2noc4c2CCCC4)CCO3)CC1` reads inactive: 12.6%; that for `c1ccc2c(c1)Sc1ccccc1N2CCN1CCCC1`, inactive: -3.41%. The result for `O=C1OCCN1/N=C/c1ccc([N+](=O)[O-])o1` reads “inactive”; that for `NC(=O)c1ccc([N+](=O)[O-])cc1Cl`, inactive: 16.5%. Take `COCc1c(C(=O)N2CCN(c3ccccc3)CC2)cnn1-c1nccc(-c2ccco2)n1`: the “activity change, negative = inhibition” value was inactive: 7.76%.
